# Results reported in the supplement of paper PMC8728848.
# The other results are listed elsewhere or left out.
# Columns and labels:
# Assay in all cases: glycan array binding signal (z-score within array); higher = stronger binding
# Conditions in all cases: glycan notation: IUPAC condensed, linker removed
# [1] = molecular target: Neu5Ac(a2-6)Gal(b1-4)GlcNAc(b1-3)Gal(b1-4)GlcNAc(b1-3)Gal(b1-4)GlcNAc(b1-2)Man(a1-3)[Neu5Ac(a2-6)Gal(b1-4)GlcNAc(b1-3)Gal(b1-4)GlcNAc(b1-3)Gal(b1-4)GlcNAc(b1-2)Man(a1-6)]GalNAc
# In short: (§1)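 Glycan array data came from 3228 arrays in the Consortium for Functional Glycomics database, and only arrays with an available protein sequence were kept. Glycan names were put into IUPAC-condensed notation, and columns mapping to the same glycan were averaged. The binding signal is a within-array Z-score, averaged across arrays of one protein sequence run at different concentrations or buffers and across linkers. A negative Z-score can be read as non-binding.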
# [2] = molecular target: Neu5Ac(a2-6)Gal(b1-4)GlcNAc(b1-3)Gal(b1-4)GlcNAc(b1-3)GalNAc
# In short: as §1
# [3] = molecular target: Neu5Ac(a2-6)Gal(b1-4)GlcNAc(b1-3)Gal(b1-4)GlcNAc(b1-3)[Neu5Ac(a2-6)Gal(b1-4)GlcNAc(b1-3)Gal(b1-4)GlcNAc(b1-6)]GalNAc
# In short: as §1
# [4] = molecular target: Neu5Ac(a2-6)Gal(b1-4)GlcNAc(b1-3)Gal(b1-4)GlcNAc(b1-6)[Gal(b1-3)]GalNAc
# In short: as §1
# [5] = molecular target: Neu5Ac(a2-6)Gal(b1-4)GlcNAc(b1-3)Gal(b1-4)[Fuc(a1-3)]GlcNAc(b1-3)Gal(b1-4)[Fuc(a1-3)]GlcNAc
# In short: as §1
# [6] = molecular target: Neu5Ac(a2-6)Gal(b1-4)GlcNAc(b1-3)GalNAc
# In short: as §1
# [7] = molecular target: Neu5Ac(a2-6)Gal(b1-4)GlcNAc(b1-3)[Neu5Ac(a2-6)Gal(b1-4)GlcNAc(b1-6)]GalNAc
# In short: as §1
# [8] = molecular target: Neu5Ac(a2-6)Gal(b1-4)GlcNAc(b1-6)GalNAc
# In short: as §1
# [9] = molecular target: Neu5Ac(a2-6)Gal(b1-4)GlcNAc(b1-6)[Gal(b1-3)GlcNAc(b1-3)]Gal(b1-4)Glc
# In short: as §1
# [10] = molecular target: Neu5Ac(a2-6)Gal(b1-4)GlcNAc(b1-6)[Gal(b1-3)]GalNAc
# In short: as §1
# [11] = molecular target: Neu5Ac(a2-6)Gal(b1-4)GlcNAc6S
# In short: as §1
# Neu5Ac(a2-6)GalNAc = molecular target: Neu5Ac(a2-6)GalNAc
# In short: as §1
# [12] = molecular target: Neu5Ac(a2-6)GalNAc(b1-4)GlcNAc
# In short: as §1
# [13] = molecular target: Neu5Ac(a2-6)GalNAc(b1-4)GlcNAc6S
# In short: as §1
# [14] = molecular target: Neu5Ac(a2-6)GlcNAc(b1-4)GlcNAc
# In short: as §1
# [15] = molecular target: Neu5Ac(a2-6)GlcNAc(b1-4)GlcNAc(b1-4)GlcNAc
# In short: as §1
# Neu5Ac(a2-8)Neu5Ac = molecular target: Neu5Ac(a2-8)Neu5Ac
# In short: as §1
# [16] = molecular target: Neu5Ac(a2-8)Neu5Ac(a2-3)Gal(b1-3)GalNAc(b1-4)[Neu5Ac(a2-3)]Gal(b1-4)Glc
# In short: as §1
# [17] = molecular target: Neu5Ac(a2-8)Neu5Ac(a2-3)Gal(b1-3)GalNAc(b1-4)[Neu5Ac(a2-8)Neu5Ac(a2-3)]Gal(b1-4)Glc
# In short: as §1
# [18] = molecular target: Neu5Ac(a2-8)Neu5Ac(a2-3)Gal(b1-4)Glc
# In short: as §1
# [19] = molecular target: Neu5Ac(a2-8)Neu5Ac(a2-3)Gal(b1-4)GlcNAc
# In short: as §1
# [20] = molecular target: Neu5Ac(a2-8)Neu5Ac(a2-3)[Gal(b1-3)GalNAc(b1-4)]Gal(b1-4)Glc
# In short: as §1
# [21] = molecular target: Neu5Ac(a2-8)Neu5Ac(a2-3)[GalNAc(b1-4)]Gal(b1-4)Glc
# In short: as §1
# [22] = molecular target: Neu5Ac(a2-8)Neu5Ac(a2-8)Neu5Ac
# In short: as §1
# [23] = molecular target: Neu5Ac(a2-8)Neu5Ac(a2-8)Neu5Ac(a2-3)Gal(b1-4)Glc
# In short: as §1
# [24] = molecular target: Neu5Ac(a2-8)Neu5Ac(a2-8)Neu5Ac(a2-3)[Gal(b1-3)GalNAc(b1-4)]Gal(b1-4)Glc
# In short: as §1
# [25] = molecular target: Neu5Ac(a2-8)Neu5Ac(a2-8)Neu5Ac(a2-3)[GalNAc(b1-4)]Gal(b1-4)Glc
# In short: as §1
# [26] = molecular target: Neu5Ac(a2-8)Neu5Ac(a2-8)Neu5Ac(a2-8)Neu5Ac(a2-3)[GalNAc(b1-4)]Gal(b1-4)Glc
# In short: as §1
# [27] = molecular target: Neu5Ac(a2-8)Neu5Gc(a2-3)Gal(b1-4)GlcNAc
# In short: as §1
# [28] = molecular target: Neu5Ac(b2-6)Gal(b1-4)GlcNAc
# In short: as §1
# Neu5Ac(b2-6)GalNAc = molecular target: Neu5Ac(b2-6)GalNAc
# In short: as §1
# [29] = molecular target: Neu5Ac9Ac(a2-3)Gal(b1-3)GlcNAc
# In short: as §1
# [30] = molecular target: Neu5Ac9Ac(a2-3)Gal(b1-4)GlcNAc
# In short: as §1
# [31] = molecular target: Neu5Ac9Ac(a2-6)Gal(b1-4)GlcNAc
# In short: as §1
# [32] = molecular target: Neu5Gc(a2-3)Gal(b1-3)GlcNAc
# In short: as §1
# [33] = molecular target: Neu5Gc(a2-3)Gal(b1-3)[Fuc(a1-4)]GlcNAc
# In short: as §1
# Neu5Gc(a2-3)Gal(b1-4)Glc = molecular target: Neu5Gc(a2-3)Gal(b1-4)Glc
# In short: as §1
# [34] = molecular target: Neu5Gc(a2-3)Gal(b1-4)GlcNAc
# In short: as §1
# [35] = molecular target: Neu5Gc(a2-3)Gal(b1-4)GlcNAc(b1-3)Gal(b1-4)GlcNAc(b1-2)Man(a1-3)[Neu5Gc(a2-3)Gal(b1-4)GlcNAc(b1-3)Gal(b1-4)GlcNAc(b1-2)Man(a1-6)]Man(b1-4)GlcNAc(b1-4)GlcNAc
# In short: as §1
# [36] = molecular target: Neu5Gc(a2-3)Gal(b1-4)[Fuc(a1-3)]GlcNAc
# In short: as §1
# [37] = molecular target: Neu5Gc(a2-6)Gal(b1-4)GlcNAc
# In short: as §1
# Neu5Gc(a2-6)GalNAc = molecular target: Neu5Gc(a2-6)GalNAc
# In short: as §1
# [38] = molecular target: Neu5Gc(a2-8)Neu5Ac(a2-3)Gal(b1-4)GlcNAc
# In short: as §1
# [39] = molecular target: Neu5Gc(a2-8)Neu5Gc(a2-3)Gal(b1-4)GlcNAc
# In short: as §1
# [40] = molecular target: Neu5Gc(a2-8)Neu5Gc(a2-3)Gal(b1-4)GlcNAc(b1-3)Gal(b1-4)GlcNAc
# In short: as §1
# [41] = molecular target: Neu5Gc(a2-8)Neu5Gc(a2-6)Gal(b1-4)GlcNAc
# In short: as §1
# [42] = molecular target: Neu5Gc(b2-6)Gal(b1-4)GlcNAc
# In short: as §1
binder,measurement,setting,value
"AT1G15820(2) (Arabidopsis thaliana), Q9LMQ2 (protein) MAMAVSGAVLSGLGSSFLTGGKRGATALASGVGTGAQRVGRKTLIVAAAAAQPKKSWIPAVKGGGNFLDPEWLDGSLPGDFGFDPLGLGKDPAFLKWYREAELIHGRWAMAAVLGIFVGQAWSGVAWFEAGAQPDAIAPFSFGSLLGTQLLLMGWVESKRWVDFFNPDSQSVEWATPWSKTAENFANYTGDQGYPGGRFFDPLGLAGKNRDGVYEPDFEKLERLKLAEIKHSRLAMVAMLIFYFEAGQGKTPLGALGL",glycan array binding signal (z-score),[1],1.31
same,glycan array binding signal (z-score),[2],-0.555
same,glycan array binding signal (z-score),[3],0.328
same,glycan array binding signal (z-score),[4],-0.477
same,glycan array binding signal (z-score),[5],-0.214
same,glycan array binding signal (z-score),[6],-0.453
same,glycan array binding signal (z-score),[7],-0.288
same,glycan array binding signal (z-score),[8],-0.157
same,glycan array binding signal (z-score),[9],0.114
same,glycan array binding signal (z-score),[10],-0.529
same,glycan array binding signal (z-score),[11],-0.243
same,glycan array binding signal (z-score),Neu5Ac(a2-6)GalNAc,-0.107
same,glycan array binding signal (z-score),[12],-0.19
same,glycan array binding signal (z-score),[13],-0.363
same,glycan array binding signal (z-score),[14],0.061
same,glycan array binding signal (z-score),[15],-0.681
same,glycan array binding signal (z-score),Neu5Ac(a2-8)Neu5Ac,0.538
same,glycan array binding signal (z-score),[16],-0.073
same,glycan array binding signal (z-score),[17],-0.082
same,glycan array binding signal (z-score),[18],-0.326
same,glycan array binding signal (z-score),[19],0.01
same,glycan array binding signal (z-score),[20],-0.444
same,glycan array binding signal (z-score),[21],-0.224
same,glycan array binding signal (z-score),[22],-0.275
same,glycan array binding signal (z-score),[23],-0.403
same,glycan array binding signal (z-score),[24],-0.105
same,glycan array binding signal (z-score),[25],0.36
same,glycan array binding signal (z-score),[26],-0.097
same,glycan array binding signal (z-score),[27],-0.31
same,glycan array binding signal (z-score),[28],-0.408
same,glycan array binding signal (z-score),Neu5Ac(b2-6)GalNAc,-0.533
same,glycan array binding signal (z-score),[29],-0.048
same,glycan array binding signal (z-score),[30],-0.225
same,glycan array binding signal (z-score),[31],-0.146
same,glycan array binding signal (z-score),[32],0.101
same,glycan array binding signal (z-score),[33],-0.541
same,glycan array binding signal (z-score),Neu5Gc(a2-3)Gal(b1-4)Glc,0.484
same,glycan array binding signal (z-score),[34],0.408
same,glycan array binding signal (z-score),[35],0.352
same,glycan array binding signal (z-score),[36],-0.017
same,glycan array binding signal (z-score),[37],-0.071
same,glycan array binding signal (z-score),Neu5Gc(a2-6)GalNAc,-0.271
same,glycan array binding signal (z-score),[38],-0.522
same,glycan array binding signal (z-score),[39],-0.719
same,glycan array binding signal (z-score),[40],-0.274
same,glycan array binding signal (z-score),[41],-0.382
same,glycan array binding signal (z-score),[42],-0.566
